# Out of some 360,000 compounds screened, about 6,000 (1.7%) were called active. The shares of active, inactive and inconclusive entries below differ from those in the screen. Calls come from the whole dose curve; as a rule, active = well fitted cell-killing curve with a large enough effect; inconclusive = small, poorly fitted or top-dose-only effect, or effect the other way; inactive = flat fitted curve, though single readings scatter. No potency is given beside an inconclusive call; the fits are too rough.
# Test: qHTS for induction of synthetic lethality in tumor cells producing 2HG: qHTS for the HT-1080-NT fibrosarcoma cell line;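 note: NT is the 2HG producing partner of a matched IDH1 knockdown line; nearly all actives have a fitted effect of over 55% in size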;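 for activity, negative = less viability: 0% = DMSO-treated cells and -100% = media-only wells without cells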
# Settings: HT-1080-NT fibrosarcoma viability, CellTiter-Glo ATP luminescence, 48 h; activity, negative = less viability: at 46.1 µM (top of the series)
# How it was run: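 Fibrosarcoma NT cells, 750 per well in 5% FBS RPMI, were exposed to compound for 48 hours. Viability: CellTiter-Glo luminescence.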
# Potency is the fitted concentration of half-maximal effect; tags give direction and shape of the fitted curve.
Compound,Potency,"activity, negative = less viability"
CC(O)C1C=CC=CC(=O)OC2CC3OC4C5OC5(C)C(O)CC4(COC(=O)C(O)C(C)CCO1)C2(C)C31CO1 (centres undefined),"inconclusive [cytotoxic, full curve]",–
CCCCCc1nc2c(c(=O)c3ccccc3n2C)c(=O)n1C1CCCCCC1,"inconclusive [cytotoxic, single point]",–
COc1ccc(O)c2c(=O)c3c(OC)cc4c(c3oc12)C1C=COC1O4 (centres undefined),–,inconclusive: -32.2% [cytotoxic]
COCCNC(=O)c1ccc(N2CC3CC(C2)c2cccc(=O)n2C3)c([N+](=O)[O-])c1 (centres undefined),"inconclusive [rising, full curve, poor fit]",–
S=C=Nc1cccc(C2(N3CCCCC3)CCCCC2)c1,active: 23.1 µM,–
CC12CC(=O)C3C(CCC4CC=CCC43C)C1CCC2=O (centres undefined),inactive,–
O=C1C=C(NS(=O)(=O)c2ccccc2)C(=O)c2ccccc21,"inconclusive [cytotoxic, partial curve, poor fit]",–
Cc1ccc(N2C(=O)NC(=O)/C(=C\C=C\c3ccco3)C2=O)cc1,"inconclusive [cytotoxic, single point]",–
CCOC(=O)[C@]12Cc3ccsc3[C@H]1N(Cc1ccccc1)C(=O)c1ccccc12,inactive,–
COc1cc(NS(=O)(=O)c2ccc3c(c2)oc(=O)n3C)cc(OC)c1OC,"inconclusive [cytotoxic, partial curve]",–
Oc1c(Br)c(Br)c(Br)c(Br)c1Br,active: 25.9 µM,–
c1ccc2c(c1)CSc1ccccc1C2C1=NCCN1 (centres undefined),"inconclusive [cytotoxic, single point]",–
COC(=O)C1=C(c2ccc(F)cc2OCc2ccccc2)C[C@@H]2CC[C@H]1N2C(=O)N1CCC(C)CC1,"inconclusive [cytotoxic, single point]",–
C[C@H](CO)N1C[C@H](C)[C@@H](CN(C)Cc2ccc(Cl)c(Cl)c2)Oc2c(NC(=O)c3ccncc3)cccc2C1=O,"inconclusive [cytotoxic, partial curve]",–
Cc1cc(C)c2c(ccc3cccc[n+]32)c1,"inconclusive [cytotoxic, full curve]",–
CCCC/C(=N\O)c1c[nH]c2ccccc12,"inconclusive [cytotoxic, single point]",–
O=C(COc1ccc(S(=O)(=O)N2CCOCC2)cc1)N1CCN(Cc2ccc3c(c2)OCO3)CC1,inactive,–
O=C(c1ccco1)c1cn(Cc2ccc(Cl)cc2)c2ccccc12,"inconclusive [cytotoxic, single point]",–
COc1ccc(C(c2nnnn2-c2ccc(OC)cc2)N2CCC3(CC2)C(=O)NCN3c2ccccc2)cc1 (centres undefined),"inconclusive [cytotoxic, single point]",–
C[C@]12CCC3C(CC[C@H]4C[C@@H](O)CC[C@]34C)C1C[C@@H](O)[C@H]2O (some centres undefined),inactive,–
COc1ccc(CCNCc2ccncc2)cc1OC,inactive,–
C[n+]1c(-c2ccccc2)c2cc(N)ccc2c2ccc(N)cc21,active: 6.51 µM,–

Compound,Potency,"activity, negative = less viability"
C#CC1(O)C=CC2C3CCC4=CC(=O)CCC4C3CCC21CC (centres undefined),inactive,–
O=c1c2ccccc2[se]n1-c1ccccc1,active: 23.1 µM,–
C[C@]12CC[C@H]3[C@@H](CCC4=CC(=O)CC[C@@]43C)[C@@H]1CC[C@@H]2O,–,inconclusive: 10.5%
O=C1Nc2ccccc2/C1=C/c1nc2ccccc2c(=O)n1-c1ccc(O)cc1,"inconclusive [cytotoxic, single point]",–
Cc1nc2cc(OC(=O)N(C)Cc3cccc(-c4ccncc4)c3)ccc2s1,"inconclusive [cytotoxic, single point]",–
CC(=O)C1CCC2C3CCC4CC(O)CCC4(C)C3CCC12C (centres undefined),"inconclusive [cytotoxic, partial curve]",–
CCOC(=O)c1ccc2[nH]c(-c3ccc(S(=O)(=O)F)cc3)cc(=O)c2c1,inactive,–
COc1ccc(-n2nnnc2C(c2cccs2)N2CCC(n3c(=O)[nH]c4ccccc43)CC2)cc1 (centres undefined),"inconclusive [cytotoxic, single point]",–
Clc1ccc(OCCCN2CCCC2)cc1Cl,"inconclusive [cytotoxic, single point]",–
CCOP(=O)(OCC)C1(C(=O)O)CCCC1,"inconclusive [rising, partial curve, poor fit]",–
C[C@@H]([C@@H](O)c1ccccc1)N(C)C(=O)Cc1ccccc1,inactive,–
CCOP(=O)(OCC)c1cccc(P(=O)(c2ccccc2)c2ccccc2)c1O,"inconclusive [cytotoxic, partial curve]",–
Cc1cccc(C)c1-n1nnnc1C(C1CC1)N1CCC2(CC1)C(=O)NCN2c1ccccc1 (centres undefined),"inconclusive [cytotoxic, single point]",–
COc1cc(NC(=O)c2cccc3c(-c4cccnc4)coc23)cc(OC)c1OC,"inconclusive [cytotoxic, partial curve]",–
COC(=O)C1=C(c2ccc(OCc3ccccc3)cc2)C[C@@H]2CC[C@H]1N2C(=O)NCc1ccc(N(C)C)cc1,inactive,–
CC1CC(C)(O)CC(C(O)CC2CC(=O)NC(=O)C2)C1=O (centres undefined),"inconclusive [cytotoxic, full curve]",–
N[C@@H](Cc1c[nH]c2ccccc12)c1nnc(SCc2c(F)cccc2Cl)o1,"inconclusive [cytotoxic, single point]",–
COC(=O)C1=Nc2ccccc2/C1=C\c1c(O)n(-c2ccc(Br)cc2)c(=O)[nH]c1=O,"inconclusive [cytotoxic, single point]",–
N=C1c2ccccc2CN1NC(=O)c1ccc(Br)cc1,inactive,–
O=C(CCn1c(=O)oc2ccccc21)N1CCN(c2ccccc2Cl)CC1,active: 8.2 µM,–
COC(=O)C1=C(c2ccc(C(C)=O)cc2)C[C@@H]2CC[C@H]1N2C(=O)NCc1ccc2c(c1)OCO2,inactive,–
COc1cc(C2C(C#N)=C(N)Oc3cc(O)ccc32)cc(OC)c1OC (centres undefined),active: 0.562 µM,–

# Reference: PubChem BioAssay AID686970 (National Center for Advancing Translational Sciences (NCATS), 2013)
